# Results from the antibiotic and cytotoxicity screens of Wong et al. (2023).
# This is one part of the list.
# How the values were obtained:
# [1] = test system: HSkMC (human skeletal muscle cells); experiment: cytotoxicity call (relative viability < 0.9); details: 10 µM
# [2] = test system: HepG2; experiment: cytotoxicity call (relative viability < 0.9); details: 10 µM
# [3] = test system: S. aureus RN4220; experiment: growth inhibition call (relative growth <= 0.2); details: 50 µM
SMILES,cytotoxicity call [1],cytotoxicity call [2],growth inhibition call [3]
C[C@@H]1CCCCO[C@H](CN(C)C(=O)Nc2cccc3ccccc23)[C@@H](C)CN([C@@H](C)CO)C(=O)c2cc(NS(=O)(=O)c3cn(C)cn3)ccc2O1,inactive,inactive,inactive
CC(C)NC(=O)Nc1cccc2c1O[C@H](CN(C)C(=O)Nc1ccc3c(c1)OCO3)[C@H](C)CN([C@@H](C)CO)C2=O,inactive,inactive,inactive
CC[C@@H](C)n1ncn(-c2ccc(N3CCN(c4ccc(OC[C@H]5CO[C@](Cn6cncn6)(c6ccc(Cl)cc6Cl)O5)cc4)CC3)cc2)c1=O,inactive,active,inactive
COCC(=O)N1[C@@H]2c3ccc(C4=CCCCC4)c(=O)n3C[C@@H]2[C@@H](CO)[C@@H]1C(=O)N1CCOCC1,inactive,inactive,inactive
C[C@@H]1CN([C@@H](C)CO)C(=O)c2cc(NC(=O)CCC(F)(F)F)ccc2O[C@@H](C)CCCCO[C@@H]1CN(C)C(=O)Nc1ccccc1,inactive,inactive,inactive
C[C@H]1CN([C@@H](C)CO)C(=O)c2cccc(NC(=O)Nc3ccc(F)cc3)c2O[C@H]1CN(C)Cc1ccc(-c2ccccc2)cc1,inactive,inactive,inactive
Cc1noc(C)c1NC(=O)N(C)C[C@@H]1Oc2ccc(NC(=O)Nc3ccc(C(F)(F)F)cc3)cc2CC(=O)N([C@@H](C)CO)C[C@@H]1C,inactive,inactive,inactive
COc1cccc(S(=O)(=O)Nc2ccc3c(c2)[C@@H]2C[C@@H](CC(=O)N4CCCCC4)O[C@@H](CO)[C@@H]2O3)c1,inactive,inactive,inactive
O=C(NCCc1ccccc1)c1nnc[nH]1,inactive,inactive,inactive
CCC(=O)N1C[C@]2(CN(C2)S(=O)(=O)C)c2c(n(c3cc(ccc23)OC)C)[C@H]1CO,inactive,inactive,inactive
C[C@H](CO)N1C[C@H](C)[C@@H](CN(C)CC2CCCCC2)OCCCC[C@H](C)Oc2ccc(NC(=O)c3ccncc3)cc2C1=O,inactive,inactive,inactive
Cn1c(=O)[nH]c(=O)c2c1nc(N1CCN(CCO)CC1)n2CCC#N,inactive,inactive,inactive
CC(C)NC(=O)N(C)C[C@H]1Oc2ccc(NS(=O)(=O)c3ccccc3)cc2CC(=O)N([C@H](C)CO)C[C@H]1C,inactive,inactive,inactive
COc1ccc(S(=O)(=O)N(C)C[C@H]2OCc3cnnn3CCCC(=O)N([C@H](C)CO)C[C@@H]2C)cc1,inactive,inactive,inactive
CC(C)Cn1cnc2ccccc21,inactive,inactive,inactive
CO[C@@H]1CN(C)C(=O)c2cc(NC(=O)Nc3cccc(Cl)c3)ccc2OC[C@@H](C)N(C(=O)Nc2c(C)noc2C)C[C@H]1C,inactive,inactive,inactive
Cc1noc(C)c1NC(=O)N(C)C[C@H]1Oc2ccc(NS(=O)(=O)c3cn(C)cn3)cc2C(=O)N([C@@H](C)CO)C[C@H]1C,inactive,inactive,inactive
C[C@@H]1CN([C@@H](C)CO)S(=O)(=O)c2ccc(Br)cc2O[C@@H]1CN(C)Cc1ccc2c(c1)OCO2,inactive,inactive,inactive
C[C@@H]1CCCCO[C@@H](CN(C)Cc2ccc(Cl)c(Cl)c2)[C@@H](C)CN([C@H](C)CO)C(=O)c2cc(NS(=O)(=O)c3cccs3)ccc2O1,inactive,inactive,inactive

SMILES,cytotoxicity call [1],cytotoxicity call [2],growth inhibition call [3]
O=C(NCc1ccccc1)C1=C[C@H](c2ccc3c(c2)Cc2ccccc2-3)C[C@H](OCc2ccc(CO)cc2)O1,inactive,inactive,inactive
C[C@@H]1CN([C@H](C)CO)C(=O)c2cc(NC(=O)C3CCCCC3)ccc2O[C@@H](C)CCCCO[C@H]1CN(C)C(=O)Nc1ccccc1,inactive,inactive,inactive
COc1cccc(C#Cc2cnc3c(c2)C(=O)N([C@@H](C)CO)C[C@H](C)[C@H](CN(C)C(=O)C2CCOCC2)O3)c1,inactive,inactive,inactive
COc1ccc(S(=O)(=O)N(C)C[C@H]2OCc3cn(nn3)CCCC(=O)N([C@H](C)CO)C[C@@H]2C)cc1,inactive,inactive,inactive
C[C@@H]1CN([C@@H](C)CO)C(=O)c2cc(NC(=O)NC3CCCCC3)ccc2O[C@@H](C)CCCCO[C@@H]1CN(C)S(=O)(=O)c1ccc(Cl)cc1,inactive,inactive,inactive
CC(C)NC(=O)NCC[C@H]1CC[C@@H](NC(=O)CN(C)C)[C@@H](CO)O1,inactive,inactive,inactive
COc1cc(OC)cc(C(=O)OCCCN2CCN(CCCOC(=O)c3cc(OC)cc(OC)c3)CC2)c1,inactive,inactive,inactive
O=C(C[C@H]1CC[C@H]2[C@@H](COC[C@@H](O)CN2S(=O)(=O)c2ccccc2Cl)O1)NCc1ccccc1Cl,inactive,inactive,inactive
CC(C)(C)OC(=O)N1C[C@H]2C[C@@H]1C(=O)O2,inactive,inactive,inactive
C[C@@H]1CN([C@H](C)CO)C(=O)CCCn2nncc2CO[C@H]1CN(C)C(=O)Nc1cccc(C(F)(F)F)c1,inactive,inactive,active
COc1ccc(S(=O)(=O)N(C)C[C@@H]2Oc3ccc(NC(=O)c4ccncc4)cc3C(=O)N([C@@H](C)CO)C[C@H]2C)cc1,inactive,inactive,inactive
C[C@H](CO)N1C[C@H](C)[C@@H](CN(C)CC2CCCCC2)Oc2c(NC(=O)Nc3cccc4ccccc34)cccc2C1=O,inactive,inactive,inactive
C[C@@H]1CCCCO[C@@H](CN(C)S(=O)(=O)c2ccc(F)cc2)[C@H](C)CN([C@H](C)CO)C(=O)c2cc(NC(=O)CCC(F)(F)F)ccc2O1,inactive,inactive,inactive
O=S1(=O)CC[C@H](S(=O)(=O)[C@H]2CCS(=O)(=O)C2)C1,inactive,inactive,inactive
C[C@@H]1CN([C@H](C)CO)S(=O)(=O)c2ccc(C#CCN(C)C)cc2O[C@H]1CN(C)C,inactive,inactive,inactive
C[C@@H]1CCCCO[C@H](CN(C)Cc2ccc(Cl)c(Cl)c2)[C@@H](C)CN([C@@H](C)CO)C(=O)c2cc(NC(=O)CCC(F)(F)F)ccc2O1,inactive,inactive,inactive
COc1ccc(S(=O)(=O)Nc2ccc3c(c2)C(=O)N([C@H](C)CO)C[C@H](C)[C@H](CN(C)C(=O)Nc2ccccc2)OCCCC[C@H](C)O3)cc1,inactive,inactive,inactive
CCCN(C)C[C@@H]1OCCCC[C@@H](C)Oc2ccc(NS(=O)(=O)c3cn(C)cn3)cc2C(=O)N([C@@H](C)CO)C[C@@H]1C,inactive,inactive,inactive
C[C@H](CO)N1C[C@H](C)[C@H](CN(C)Cc2ccc3c(c2)OCO3)Oc2ncc(Br)cc2C1=O,inactive,inactive,inactive

SMILES,cytotoxicity call [1],cytotoxicity call [2],growth inhibition call [3]
CO[C@@H]1CN(C)C(=O)c2ccc(NS(=O)(=O)c3ccccc3)cc2OC[C@H](C)N(C(=O)NC(C)C)C[C@H]1C,inactive,inactive,inactive
Cc1ccc(S(=O)(=O)Nc2cccc3c2O[C@H](CN(C)C(=O)Nc2ccc(C(F)(F)F)cc2)[C@H](C)CN([C@H](C)CO)C3=O)cc1,inactive,inactive,inactive
CO[C@H](CN(C)S(=O)(=O)c1cccc(Cl)c1)[C@@H](C)CN([C@H](C)CO)S(=O)(=O)c1cccc(Cl)c1,inactive,inactive,inactive
COc1cccc(C#Cc2cnc3c(c2)C(=O)N([C@@H](C)CO)C[C@@H](C)[C@H](CN(C)C(=O)C2CCOCC2)O3)c1,inactive,inactive,inactive
C[C@H]1CN([C@@H](C)CO)C(=O)Cc2cc(N(C)C)ccc2O[C@@H]1CN(C)S(=O)(=O)c1ccc(Cl)cc1,inactive,inactive,inactive
C[C@H](CO)N1C[C@H](C)[C@@H](CN(C)Cc2ccc(Oc3ccccc3)cc2)Oc2ncc(-c3cccnc3)cc2C1=O,inactive,inactive,inactive
Cc1noc(C)c1S(=O)(=O)Nc1ccc2c(c1)C(=O)N([C@H](C)CO)C[C@H](C)[C@H](CN(C)S(C)(=O)=O)OCCCC[C@H](C)O2,inactive,inactive,inactive
Cc1cccc(CN(C)C[C@@H]2Oc3ncc(-c4cccc(C(F)(F)F)c4)cc3C(=O)N([C@H](C)CO)C[C@@H]2C)c1,inactive,inactive,inactive
NC(=O)c1ncn([C@H]2O[C@@H](COP(=O)(O)O)[C@@H](O)[C@@H]2O)c1N,inactive,inactive,inactive
COCC(=O)Nc1ccc2c(c1)OC[C@@H](C)N(Cc1ccccc1OC)C[C@@H](C)[C@H](OC)CN(C)C2=O,inactive,inactive,inactive
COc1ccc(S(=O)(=O)N[C@H]2C=C[C@H](CC(=O)NCCc3ccncc3)O[C@H]2CO)cc1,inactive,inactive,inactive
Cc1noc(C)c1NC(=O)Nc1ccc2c(c1)CC(=O)N([C@H](C)CO)C[C@@H](C)[C@@H](CN(C)C(=O)Nc1cccc3ccccc13)O2,inactive,inactive,inactive
NC[C@@H](O)c1ccsc1,inactive,inactive,inactive
CN1C(=O)c2cc(NC(=O)Cc3cccs3)ccc2OC[C@H]2O[C@H](CC(=O)NCc3ccc(-c4ccccc4)cc3)CC[C@@H]21,inactive,inactive,inactive
CCS(=O)(=O)N1CC[C@]2(CC1)CN([C@H](CO)c1c2c2ccc(cc2n1C)OC)C(=O)c1cccc(c1)F,inactive,inactive,inactive
CC(=O)OCC(=O)C1CCC2C3CCC4=CC(=O)CCC4(C)C3CCC12C (stereo unspecified),inactive,inactive,inactive
C[C@@H]1CN([C@@H](C)CO)C(=O)c2cc(NS(=O)(=O)c3ccc(Cl)cc3)ccc2O[C@@H](C)CCCCO[C@H]1CN(C)Cc1ccncc1,inactive,inactive,inactive
O=C(C[C@@H]1CC[C@H]2[C@@H](COC[C@@H](O)CN2C(=O)c2ccccc2)O1)N1CCOCC1,inactive,inactive,inactive
C=CCOc1nc(NCC)nc(N(C)C)n1,inactive,inactive,inactive
